# In publication PMC6919601, “Identification of Plasmodium dipeptidyl aminopeptidase allosteric inhibitors by high throughput screening” (PLoS ONE, 2019):
# Out of some 110,000 compounds screened, about 230 (0.21%) showed an effect of 50% or more. Some of the results follow.
# Target: DPAP1 (Plasmodium falciparum, UniProt Q8IIJ9)
# Assay: primary screen, percent inhibition; read by cleavage of a fluorogenic dipeptide substrate; higher = more effect of the substance
# Set-up: species or system P. falciparum D10 trophozoite lysates; single well
# 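Further: 30 min substrate incubation versus DMSO and 10 µM JCP410 controls.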
# Chain of DPAP1 (Q8IIJ9 whole entry, looked up): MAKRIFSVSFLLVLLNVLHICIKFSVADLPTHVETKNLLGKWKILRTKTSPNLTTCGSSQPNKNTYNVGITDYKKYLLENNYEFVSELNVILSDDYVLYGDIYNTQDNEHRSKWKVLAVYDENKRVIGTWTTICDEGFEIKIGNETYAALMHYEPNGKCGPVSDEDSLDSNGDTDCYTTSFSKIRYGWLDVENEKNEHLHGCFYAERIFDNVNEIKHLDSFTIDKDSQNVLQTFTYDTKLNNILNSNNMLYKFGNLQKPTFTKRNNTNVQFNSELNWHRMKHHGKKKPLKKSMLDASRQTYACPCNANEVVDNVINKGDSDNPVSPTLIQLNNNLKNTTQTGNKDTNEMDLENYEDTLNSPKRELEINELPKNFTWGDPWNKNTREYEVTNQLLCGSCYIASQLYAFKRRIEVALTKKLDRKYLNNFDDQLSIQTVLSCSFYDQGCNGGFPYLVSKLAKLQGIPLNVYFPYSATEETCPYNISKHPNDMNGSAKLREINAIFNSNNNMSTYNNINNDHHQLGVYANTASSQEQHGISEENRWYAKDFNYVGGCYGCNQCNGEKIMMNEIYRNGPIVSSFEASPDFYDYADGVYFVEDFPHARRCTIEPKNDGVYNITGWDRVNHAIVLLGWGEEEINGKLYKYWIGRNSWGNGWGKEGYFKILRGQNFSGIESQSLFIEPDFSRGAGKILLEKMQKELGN
row,SMILES,% Inhibition @ 10 uM [%]
1,OCC1CCCN1CC1CCCCC1 (stereo not shown),-1.64
2,COc1ccc(CNS(=O)(=O)c2ccc(Cl)c(Cl)c2OC)cc1,6.35
3,O=[N+]([O-])c1ccc(N2CCN(Cc3ccccc3)CC2)c([N+](=O)[O-])c1,-3.03
4,COc1ccc(-c2noc(C)n2)cc1,-1.71
5,Cc1ccc(C(=O)O/N=C(\N)c2ccncc2)cc1Cl,-1.25
6,COc1ccc(/C=C/C(=O)N(Cc2ccccc2F)C2CCS(=O)(=O)C2)cc1 (stereo not shown),5.17
7,Cc1ccc(CN(CC(=O)Nc2ccc(Cl)cc2)S(=O)(=O)c2ccccc2)cc1,6.18
8,O=CNC1CCCc2c1[nH]c1ccc(Cl)cc21 (stereo not shown),2.13
9,CCS(=O)(=O)c1nc2ccccc2n1CCOc1ccc(Cl)cc1,0.0539
10,CCCC1=Nc2nc(C)nn2C(c2cccnc2)/C1=C(/O)OCC (stereo not shown),-1.85
11,Cc1ccc(-c2noc(-c3nnn(-c4cccc(C)c4C)c3N)n2)cc1,5.22
12,CCOc1ccc(Cc2nnc(SC(C)C(=O)O)n2C)cc1 (stereo not shown),3.27
13,Cc1ccccc1OCC(=O)N1CCCc2ccccc21,2.64
14,CCOC(=O)c1c(-c2ccc(Cl)cc2)nn2c1NCN(Cc1ccco1)C2,-2.88
15,COC(=O)[C@@H](CC(C)C)NC(=O)[C@@H]1CCCN1C#N,3.66
16,CC(CCc1ccccc1)NC(=O)CCc1cn(C)c2ccccc12 (stereo not shown),-3.15
17,Cc1c(Br)c(=O)oc2c(Br)c(O)ccc12,-5.03
18,CCc1c(C)sc(NC(=O)C2CCC2)c1C#N,-2.53
19,CN1CCC(N(C)Cc2cccc(Cl)c2)CC1,-2.81
20,CCC1CCCCN1CCCNC(=O)C1CCCN(c2ncnc3c2nc2n3CCCCC2)C1 (stereo not shown),-3.22
21,CCc1c(C)sc(NC(=O)c2cccc(Br)c2)c1C#N,16.6
22,Cc1cccc(C(=O)Nc2ccc(S(=O)(=O)N3CCC(C)CC3)cc2)c1,1.64
23,NC(=O)c1c(NC(=O)c2cc(Cl)ccc2Cl)sc2c1CCC2,-6.2
24,OC1CCCN(Cc2cccc(F)c2)C1 (stereo not shown),-3.56
25,CCOC(=O)c1[nH]c2ccc(OC)cc2c1NC(=S)N1CCOCC1,-6.08

row,SMILES,% Inhibition @ 10 uM [%]
1,Cc1ccc(Oc2ccc(NC(=O)CCC(=O)O)cc2)cc1C,-0.473
2,CN(C)CCNc1nc(-c2ccc(Cl)cc2)nc2ccccc12,-0.69
3,COC(=O)C(C)NC(=O)COc1ccc([N+](=O)[O-])cc1 (stereo not shown),-5.38
4,Cc1ccccc1C1=NC(C(F)(F)F)(C(F)(F)F)N=C(N2CCOCC2)O1,1.51
5,Fc1cccc(CN2CCN(Cc3ccco3)CC2)c1,-5.85
6,Cc1ccc(NC(=O)c2c(-c3ccccc3)noc2C)cc1,-1.89
7,Cn1c(=O)c(=O)[nH]c2c(=O)oc3ccc(S(=O)(=O)NCCc4ccc(Cl)cc4)cc3c21,3.07
8,CCOC(=O)c1cc(-c2ccc(F)cc2)n(CC(=O)NCCN(C)C)c1C,-5.47
9,Cc1cc(NC(=O)C2c3ccccc3C(=O)N(CC(C)C)C2c2cccs2)no1 (stereo not shown),1.69
10,COc1ccc(Br)c(-c2nnc(CS(=O)(=O)c3ccccc3)o2)c1,6.37
11,COc1cc(C(=O)Nc2ccc(F)cc2C)ccc1OC(F)F,0.956
12,CC(C)CN1C(=O)C(NC(=O)C2CC2)(C(F)(F)F)C2=C1CC(C)(C)CC2=O (stereo not shown),-1.59
13,CC(=O)NC(C)c1ccc(Cl)c(Cl)c1 (stereo not shown),0.219
14,Cc1noc(/C=C/N(C)C)c1S(=O)(=O)N1CCC(C(=O)O)CC1,-0.458
15,Cc1ccc(-c2cc(C(=O)O)c3cc(Br)ccc3n2)cc1,2.95
16,Cc1cccc2sc(NC(=O)C(C)Oc3ccccc3)nc12 (stereo not shown),-2.65
17,Cc1ccc(OCC(=O)NCc2ccc(F)cc2)cc1C,8.08
18,Clc1ccccc1CN1CCN(CC2CC=CCC2)CC1 (stereo not shown),1.81
19,CN(Cc1ccco1)S(=O)(=O)c1nnc(NC(=O)C23C[C@H]4C[C@@H](C2)C[C@@H](C3)C4)s1,6.06
20,COc1ccc(OC)c(CCNC(=O)CCc2cn(C)c3ccccc23)c1,-0.256
21,C=CCN1C(=O)N/C(=C\c2cccc(OC)c2O)C1=O,12.1
22,Cc1cc(C)c(-c2[nH]nc3c2C(c2ccccc2F)N(CCCO)C3=O)c(O)c1 (stereo not shown),0.00706
23,CC[C@H](NC(=O)[C@H](CC1CCCCC1)OC(=O)N1CCOCC1)C(=O)c1nc2ncccc2o1,-0.207
24,N#C/N=C(/SCc1ccccc1)SCN1C(=O)CCC1=O,2.22
25,COc1ccc(N2CCN(Cc3ccccc3Cl)CC2)cc1,6.18

row,SMILES,% Inhibition @ 10 uM [%]
1,COc1cc(-c2noc(CCCC(=O)NC(C)(C)C)n2)cc(OC)c1OC,3.81
2,COC(=O)C1=CNC=C(C(=O)OC)C1c1cc(OC)c(Br)cc1OC,-0.357
3,COc1ccc(/C=C/C(=O)NCC(=O)N2CCC(N(C)CCN3CCOCC3)CC2)cc1OC,-2.85
4,C[C@@]12Cc3nc4ccccc4c(N)c3[C@]1(C)Cc1nc3ccccc3c(N)c12,-2.98
5,COc1ccc(OC)c(C(O)c2coc3ccc(O)c(CN(C)C)c23)c1 (stereo not shown),5.48
6,COc1ccc(Cc2nnc(C(=O)NCCCOC(C)C)o2)cc1OC,-8.99
7,Nc1nonc1C(=O)NCCNCc1ccccc1C(F)(F)F,0.00706
8,CC(C)(C)c1csc(NC(=O)c2cccnc2Cl)n1,-6.25
9,Cc1ccc(C(CC(=O)N2CCCCC2)N2Cc3ccccc3C2=O)cc1 (stereo not shown),-1.65
10,Cc1ccc(NC2(c3nnnn3C(/C=C\c3ccc(Cl)cc3Cl)C(C)(C)C)CCCCC2)cc1 (stereo not shown),-6.82
11,COc1ccc(CN2CCNCC2)c(OC)c1,2.65
12,CCCN1C(=O)C(NC(=O)c2cccc(C)c2)(C(F)(F)F)N=C1c1ccccc1 (stereo not shown),-1.51
13,Cn1c(SCc2ccccc2Cl)nc(=O)c2c1NC(=O)CC2c1cc(F)cc(F)c1 (stereo not shown),5.39
14,O=C(O)c1ccc(N2N=C(c3ccccc3)CC2c2ccccc2)cc1 (stereo not shown),-0.446
15,CCC(=O)Nc1ccc(Cl)c(NC(=O)c2ccccc2C)c1,-2.74
16,COc1ccc(-n2nc3c(N4CCC(C(=O)NCC5CCCO5)CC4)nnc(C)c3c2C)cc1 (stereo not shown),17.1
17,COc1ccc(CC(=O)Nc2ccc(C(C)C)cc2)cc1,1.41
18,Cc1ccc(NCCc2ccc(C)nc2)cc1,-3.38
19,CC(=O)c1ccc(NC(=O)c2ccc(Cl)c(Cl)c2)cc1,6.1
20,NS(=O)(=O)c1ccc(CCNC(=O)C2CCCN2S(=O)(=O)c2cccc3nsnc23)cc1 (stereo not shown),-2.25
21,CCOC(=O)/C(C#N)=C/c1c(Oc2cc(C)ccc2C(C)C)nc2ccccn2c1=O,21.7
22,CCCOc1ccc(C2c3c(-c4ccccc4O)n[nH]c3C(=O)N2CCOC)cc1OCC (stereo not shown),2.02
23,O=C(c1ccc(-n2c(-c3ccccc3)cc3c2CCCC3)cc1)N1CCOCC1,5.04
24,CCC(C)NC(=O)c1cc2c(Cl)nc3ccccc3c2s1 (stereo not shown),1.1
25,O=C(CCCc1ccccc1)Nc1ccccc1O,-3.01

row,SMILES,% Inhibition @ 10 uM [%]
1,CCN1C(=O)C(CC(=O)Nc2ccc(C)cc2C)S/C1=N/c1ccc(C(C)=O)cc1 (stereo not shown),1.27
2,Cc1ccc(/C=C2\C(=N)N3N=C(S(C)(=O)=O)SC3=NC2=O)o1,0.208
3,COCCNC(=O)CSc1[nH]c(-c2cccc(F)c2)nc1-c1ccccc1,0.163
4,COc1cccc(N2C(=O)CC(c3c[nH]c4ccccc34)C2=O)c1 (stereo not shown),-2.78
5,CC1(C)CC(=O)C(/C=N/CCN2CCN(C(=O)c3ccccc3)CC2)=C(O)C1,-7.18
6,CC(C)CN1C(=O)C2C3C=CC(C3)C2C1=O (stereo not shown),-2.87
7,O=C1CC(N2CCOCC2)C(=O)N1c1cc(Cl)cc(Cl)c1 (stereo not shown),-5.49
8,Nc1nnc2c(n1)-c1ccccc1C2=O,-0.546
9,O=C(C1CCCN(CC2CC3C=CC2C3)C1)N1CCC(Cc2ccccc2)CC1 (stereo not shown),-4.84
10,CCCCN(CC)S(=O)(=O)c1ccc2nc(O)cc(C(=O)NCCCOCC)c2c1,-1.34
11,CCOC(=O)N1CCN(C(=O)CN(c2ccc(F)cc2)S(=O)(=O)c2ccccc2)CC1,0.00477
12,COc1ccc(C2=N/C(=C\c3cccc4ccccc34)C(=O)O2)cc1,7.61
13,CCN(CC)CCN1C(=O)C(O)=C(C(=O)c2ccc(F)cc2)C1c1cccc(Cl)c1 (stereo not shown),-0.564
14,CCc1cc2c(cc3c(=O)n(CC(=O)NCc4ccccc4Cl)nc(CC)n32)s1,4.84
15,O=C(Cc1cccs1)N1CCc2ccccc21,1.7
16,COc1ccc(OC)c(NC(=O)c2ccc(OC(C)C)cc2)c1,-1.88
17,COc1ccc(S(=O)(=O)Nc2ccc(C(N)=O)cc2)cc1,3.03
18,COc1cc2c(C(=O)NCc3ccc4c(c3)OCO4)cn(C)c(=O)c2cc1OC,12.3
19,Cc1cc(O)n2nc(NC(=O)c3ccccc3F)nc2n1,0.401
20,COc1ccc2c(CNCCc3ccc(Cl)cc3)c(C(=O)O)[nH]c2c1,3.38
21,CCOC(=O)c1ccc(-n2cc(-c3cc4ccccc4oc3=O)nc2S)cc1,10.7
22,COc1ccc(CCNC(=O)CC(C)C)cc1OC,4.81
23,COc1ccc(S(=O)(=O)N(CC(N)=O)c2ccc(C)cc2)cc1OC,1.52
24,Cc1ccc(C)c(N2CCN(Cc3cc(C)n(-c4cccc(C(F)(F)F)c4)c3C)CC2)c1,-1.41
25,COc1ccc(OC)c(CN2CCN(Cc3cccc(C)c3)CC2)c1,4.32
